The source holds more than one record for some entries. This is not the full list of results. There may be further records. The rule behind the calls is not given here. Values given together repeat one measurement in other runs, samples, wells, individuals or studies. Marks in square brackets tell the records apart. Letters hold for one entry only.
Target: Peptidyl-prolyl cis-trans isomerase FKBP1A (Homo sapiens) (UniProt P62942)
Experiment: small-molecule binding to FKBP12 – biophysical, NMR detection (AID 608)
Conditions: purified FKBP12

UniProt P62942, sequence (P62942 whole entry, looked up): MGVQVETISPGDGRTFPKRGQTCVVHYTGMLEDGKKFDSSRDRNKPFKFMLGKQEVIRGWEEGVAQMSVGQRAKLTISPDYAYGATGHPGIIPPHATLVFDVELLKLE

Structure (SMILES)	Kd
Cc1csc(CCc2nc(C)cs2)n1	204 µM [sample A] and inactive [sample B]
O=S(=O)(N1CCOCC1)n1nnc2ccccc21	inactive: > 4 mM [sample A] and inactive [sample B]
Cc1cc2ncn(S(=O)(=O)N3CCOCC3)c2cc1C	inactive: > 4 mM [sample A] and inactive [sample B]
CC(=O)c1cccc(NS(=O)(=O)N2CCCCC2)c1	25 µM [sample A] and 686 µM [sample B]

Reference: PubChem BioAssay AID608 (Sanford-Burnham Center for Chemical Genomics, 2007)
